# Laboratory results from the RNAGym collection of RNA variant scans (doi:10.7554/elife.90254).
# The source gives no read counts; variants with many changes may rest on few reads.
# B1: LINE1-mini (parent)
# chain: GGCAGAGCUCAACACAGCGUGGCAAAGUGGCUGUGGCUAGACUGCC
# Variants of: B1
# Test: self-cleavage, relative activity (ratio to wild type); higher = more cleavage; in vitro, sequencing; the parent is a self-cleaving ribozyme
row,Variant,self-cleavage
1,G7A A12C G17A G40A,0.08
2,C13A A16C C42A,0.04
3,C10A A26U G44A,0.04
4,G2C U9C A14C G19U G22U G27A,0.01
5,G21U U34C C45G,0.03
6,G2U C3U A24U,0.35
7,C3G A16C C23U U28A U34C,0.15
8,A25C C31G U34C G44U,0.01
9,G17C A25G C31G,0.35
10,G2A G5U C23A A24G U32C,0.09
11,C3U C18A C46U,0.08
12,G2A A11G A12U A24C G35A G40U C45G,0
13,G5U C13U G22U,0.21
14,U9A C10A U20A A24C G35A,0.02
15,C3U G17U G19C,1.24
16,U9G C15A C18U C23A A24G,0.05
17,C3G U9A C15U G27A,0.44
18,G7C G17A A39U,0.1
19,G7U C8U A16C A26G G40A,0.05
20,G33A G36U G44C,0.05
21,A25G G36C A41U G44U,0.03
22,U9G C13G U28G,0.06
23,C10U A12G G27U U34C,0.02
24,C8U A24G C46A,0.05

row,Variant,self-cleavage
1,G2C A6G G19U,0.03
2,U20C G27C G40U,0.04
3,G2C C18A G21C C45U C46U,0.06
4,A26C C42A G44U,0.03
5,C31U A39C C45A,0.01
6,G1U U9A C42G,0
7,C10U G21C A39U,0.06
8,A25C U32A G44A,0.05
9,G17U G19A G30A,2.07
10,G5C G19A U38A C42G,0.23
11,G1U U28A C31A,0.09
12,C3G A6G G17U,0.03
13,C23U C37U C46U,0.01
14,C18A C23G U34C U43C,0.02
15,G17U U20A G21C C46G,0.35
16,C10U G19A C31A,1.36
17,G1A A14C G30U C46G,0.05
18,G2U C8A A11C A24U G29C,0
19,U28G U34A G36C,0.03
20,U9A C10G A14C G17U A41C,0.01
21,C3G C10G U20C U32C C46A,0.02
22,U32C G33U C37G C42A,0.11
23,A6C G7A C13A G21U,0.16
24,A4U C13A G17A A25U G44U,0.07

row,Variant,self-cleavage
1,G2A G5C C18A A26U G30A A39G,0.05
2,G17C C18U C23G G35U,0.01
3,G5A G21C C37G C45U,0.04
4,G17U U20G U28A U38G,0.02
5,A6C G29U G33A,0.03
6,G2U G30A G33C G36U,0.02
7,C13G A14U U34A,0.01
8,G5U C15A G35U,0.03
9,A16G A26G G40U C42U U43C,0.06
10,C3G U20G A24G,0.64
11,G35C G40U C42A,0.02
12,A14C U20A A26U C37U U38C,0.04
13,U9A G27C U28G G44A,0.09
14,U9G A14G A25C U38A,0.01
15,C15U G19U C37A C46U,0
16,G5A A6G A12C C13A C15A G22C G33A,0.01
17,G1U A6G A16U C37G C45U,0
18,G1A G22U C23A C37A,0.02
19,C13A G29U G30A C37U,0.03
20,C15U G22A C23G C37A,0.02
21,U28A G30U C31A C37G,0.02
22,A11C U20C G40C,0.02
23,A6G C13U G40C,0.05
24,G19A G40U C42A,0.01

row,Variant,self-cleavage
1,C10U G30U C45A,0.72
2,G17A C18A C31G U32C,0.04
3,G21C G35U G36U,0.26
4,G2A A6C A12G A26U G30C U38G U43G,0
5,G21C C23U C42G,0.02
6,C18U C23A A25G,2.35
7,G5A U9A G44C,0.08
8,C37U U43C G44A,0.11
9,C3A C8G U20C U28A,0.02
10,G1C A4G C15A,0.2
11,G19U U28C G40A,0.1
12,C3G A4G G29U,0.13
13,G2A U9A U34G G44U,0.04
14,C13G G27U G36C G40A,0.04
15,G22U A26U G27A,0.46
16,G2A C15A G33C C45U,0.03
17,G5C A14C U43A,0.04
18,G5C A6C C18A,0.04
19,G5C A6C C8U A39U,0.51
20,C8G A14C G17A G27C C46U,0.07
21,G2U A4C U9C C10A A26C G36C,0
22,G1U G2U C10A A14U U32G C46G,0.01
23,G2A G5A C15A C46A,0.84
24,A11G G22C C45G,0.03

row,Variant,self-cleavage
1,A12C G19C C37A U38A C46U,0
2,C13A G19U G35A U38A C46G,0.12
3,C10A C18G A24U C31U,0.03
4,G1A G5C G7U G22A G30U U34A,0.22
5,A12G G30C C45A,0.04
6,C13A G30C G33C,0.01
7,C13U U34C G36C,0.04
8,A39G C42A G44U,0.15
9,G19U A41U U43A C45U,0.05
10,C8U A14U U34A,0.15
11,G17C G21U A24U C42A,0.21
12,A12C G40C C45G,0
13,G7C U20C C45U,0.06
14,A12U G30C U38G,0.02
15,U9C A26C U32G,0.04
16,C10G A14G C15U G22U G36C,0
17,U9G C15G G30U U32G U38G,0.1
18,C3G C13A C15G,0.13
19,A6G G7U C10U,0.05
20,G17U G29A A39U C46A,0.03
21,C8A G17U A26U G27U,0.26
22,G1U A6C G21U G36A,0.02
23,A16G A25U U34A A39G,0
24,G5C A6C A16U G40C,0.07

row,Variant,self-cleavage
1,G1A U9A U43C,0.58
2,C23G A25G A39C,0.04
3,G7U G21U C42G,0.03
4,C10A A11G A12G C13A,0.01
5,G19A G22U G36U,0.04
6,C18A U32G G33A C37A U43A,0.01
7,G22C U32G G33U,0.07
8,A16U A26C G29U G35U,0.02
9,C15A G40U U43G,0.06
10,C3A U32C C46G,0.13
11,C8U C13U G27C U28C,0.38
12,A14C G19C U28G U32C A39U C46U,0.04
13,A6U A12U A25U A26G G44C,0.34
14,C15G C23G U43G G44U,0.01
15,C8A G21U C37G A39G G44A,0.05
16,C15A G21C G29U U34G A39C,0.01
17,C10U U28G C31A,0.05
18,G2A G7U U9C C10U,0.03
19,A14G C31U G33C,0.02
20,C8G A16U G40A C42U C45U,0.01
21,G1C C8U A11U G21A A41U,0.01
22,A26C G27A G36U C46G,0.53
23,A4U G17C U38G,0
24,C23A U38A C45U C46A,0.16

row,Variant,self-cleavage
1,A14C G29U U43A,0.13
2,U9C A11U A24C U38A,0
3,G2C C31U A39U,0.12
4,G2U G7A A26U U28A G36A,0.05
5,A16G U28G G35C,0.02
6,C37G U38G G44U,0.02
7,C15U C23U U28A,0.43
8,G22U A26U G44A,0.46
9,A14C G17A C31U,0.01
10,C15A G33U U34C,0.05
11,A12U A14U C15A G21U G30A,0.04
12,C8U G33A G36C,0.06
13,U20G A26U G27C U28G U32C,0.18
14,C13A C23A G36A G44A,0.49
15,C3G U28G C45G,0.04
16,C15U G19U A24G C45G,0.1
17,G30U C42A U43A,0.05
18,C8U U9A C13U C37U,0.13
19,A6U U9C C13G G30U C31A,0.01
20,A4U A12C C46G,0.07
21,A4U C18U G21A,0.26
22,C3G A24C G27A,0.46
23,A14G A39C C45U,0.04
